Reference: paper PMC8649222, “Exclusive inhibition of IL-6 trans-signaling by soluble gp130^FlyRFc” (Cytokine: X, 2021)

How the values were obtained:
Assay in all cases: SPR; Biacore X100, multi-cycle; sgp130Fc variants captured on a Protein A chip (~500 RU); HIL-6 or HIL-11 injected at 0.1953-50 nM, 30 µl/min; 25 °C, PBS pH 7.4, 0.05% surfactant P20; 1:1 binding model
Conditions in all cases: both partners purified
sgp130^FlyRFc = biological target: T1, sgp130^FlyRFc (human, UniProt P40189 23-619, T102Y | Q113F | N114L | R281Q)
T1 construct: gp130, all six extracellular domains (D1-D6), with the Fly mutations and R281Q; Disulfide-linked dimer through the Fc; Made by site-directed mutagenesis of the sgp130^FLYFc plasmid; also called sgp130^Fly,R281QFc; sgp130^FLY/R281QFc; source: Expi293 cells, transiently transfected, purified from supernatant (protein A)
T1 sequence (looked up): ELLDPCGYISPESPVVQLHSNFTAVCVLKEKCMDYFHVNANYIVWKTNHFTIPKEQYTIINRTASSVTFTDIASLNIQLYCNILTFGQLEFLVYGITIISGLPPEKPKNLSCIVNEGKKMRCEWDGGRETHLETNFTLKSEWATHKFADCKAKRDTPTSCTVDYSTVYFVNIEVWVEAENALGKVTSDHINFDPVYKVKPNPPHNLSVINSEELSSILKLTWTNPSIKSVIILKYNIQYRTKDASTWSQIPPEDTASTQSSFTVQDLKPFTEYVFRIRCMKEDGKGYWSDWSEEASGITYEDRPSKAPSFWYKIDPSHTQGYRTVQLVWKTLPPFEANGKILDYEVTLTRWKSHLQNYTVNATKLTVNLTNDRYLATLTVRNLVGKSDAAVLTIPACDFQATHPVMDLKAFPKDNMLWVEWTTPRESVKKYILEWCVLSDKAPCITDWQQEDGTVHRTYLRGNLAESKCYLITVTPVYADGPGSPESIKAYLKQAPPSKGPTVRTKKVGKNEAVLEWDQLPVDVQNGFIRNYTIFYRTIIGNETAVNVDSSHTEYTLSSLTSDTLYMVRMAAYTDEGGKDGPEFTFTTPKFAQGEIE

sgp130^R281QFc = biological target: T2, sgp130^R281QFc (human, UniProt P40189 23-619, R281Q)
T2 construct: gp130, all six extracellular domains (D1-D6), with the patient SNP R281Q in domain 3; Disulfide-linked dimer through the Fc; Made by site-directed mutagenesis of the sgp130Fc plasmid; R281Q is a SNP found in a patient; source: Expi293 cells, transiently transfected, purified from supernatant (protein A)
T2 sequence (looked up): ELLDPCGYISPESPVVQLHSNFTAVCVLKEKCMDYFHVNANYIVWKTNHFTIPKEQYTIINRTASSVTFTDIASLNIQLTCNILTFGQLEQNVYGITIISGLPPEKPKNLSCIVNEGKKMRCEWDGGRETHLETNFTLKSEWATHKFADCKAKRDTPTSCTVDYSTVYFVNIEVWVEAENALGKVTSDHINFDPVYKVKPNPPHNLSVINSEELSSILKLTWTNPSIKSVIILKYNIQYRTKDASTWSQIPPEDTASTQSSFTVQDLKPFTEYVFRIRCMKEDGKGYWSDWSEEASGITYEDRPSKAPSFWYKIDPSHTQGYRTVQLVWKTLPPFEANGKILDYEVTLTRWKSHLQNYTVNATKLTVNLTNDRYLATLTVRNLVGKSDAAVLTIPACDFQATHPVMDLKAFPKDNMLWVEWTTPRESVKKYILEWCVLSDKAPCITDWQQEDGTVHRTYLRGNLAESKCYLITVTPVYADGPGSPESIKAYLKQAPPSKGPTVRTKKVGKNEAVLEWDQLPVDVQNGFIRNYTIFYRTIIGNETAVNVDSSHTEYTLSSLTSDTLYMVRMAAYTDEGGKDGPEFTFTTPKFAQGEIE

sgp130Fc = biological target: T3, sgp130Fc (human, UniProt P40189 23-619)
T3 construct: gp130, all six extracellular domains (D1-D6); also called soluble gp130Fc; olamkicept; source: stably transfected CHO-K1 cells (roller bottles), purified from supernatant (protein A)
T3 sequence (looked up): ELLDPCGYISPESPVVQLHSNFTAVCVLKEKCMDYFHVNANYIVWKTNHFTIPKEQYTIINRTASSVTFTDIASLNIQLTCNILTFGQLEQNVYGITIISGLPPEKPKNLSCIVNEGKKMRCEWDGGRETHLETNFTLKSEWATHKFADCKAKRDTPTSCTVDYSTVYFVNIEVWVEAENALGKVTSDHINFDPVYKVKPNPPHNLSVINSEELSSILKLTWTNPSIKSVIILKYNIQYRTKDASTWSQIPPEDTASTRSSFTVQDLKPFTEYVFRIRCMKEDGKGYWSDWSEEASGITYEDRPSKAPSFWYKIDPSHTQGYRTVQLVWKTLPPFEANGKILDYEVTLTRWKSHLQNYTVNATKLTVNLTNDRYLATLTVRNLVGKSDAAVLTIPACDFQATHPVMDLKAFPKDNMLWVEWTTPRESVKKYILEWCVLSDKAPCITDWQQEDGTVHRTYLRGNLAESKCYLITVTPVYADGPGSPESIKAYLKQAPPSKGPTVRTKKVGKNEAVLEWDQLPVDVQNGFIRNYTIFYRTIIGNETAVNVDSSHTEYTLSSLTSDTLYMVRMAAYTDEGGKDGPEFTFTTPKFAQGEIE

Kd (sgp130^FlyRFc): 0.042 nM | Kd (sgp130^R281QFc): 0.095 nM | Kd (sgp130Fc): 0.148 nM
B1: Hyper IL-6 (HIL-6), fusion protein of IL-6 and the soluble IL-6R connected by a flexible peptide linker (other)
chain: LAPRRCPAQEVARGVLTSLPGDSVTLTCPGVEPEDNATVHWVLRKPAAGSHPSRWAGMGRRLLLRSVQLHDSGNYSCYRAGRPAGTVHLLVDVPPEEPQLSCFRKSPLSNVVCEWGPRSTPSLTTKAVLLVRKFQNSPAEDFQEPCQYSQESQKFSCQLAVPEGDSSFYIVSMCVASSVGSKFSKTQTFQGCGILQPDPPANITVTAVARNPRWLSVTWQDPHSWNSSFYRLRFELRYRAERSKTFTTWMVKDLQHHCVIHDAWSGLRHVVQLRAQEEFGQGEWSEWSPEAMGTPWTESRSPPAENEVSTPMQALTTNKDDDNILFRDSANATSLPVQDSSSVP[about 200 residues left out]
